Source: PubChem BioAssay AID1963576 (National Center for Advancing Translational Sciences (NCATS), 2024)
Hit rate of the full screen: of about 46,000 compounds, about 60 (0.1%) were called active. Another 3% or so got no clear call; they are omitted. The call rests on the fitted dose curve; in most records, active means well fitted inhibition curve with a large enough effect; inconclusive means small, poorly fitted or top-dose-only effect; inactive means no such curve, though single readings can be large or run the other way. Some of the results follow.

Assay: Primary qHTS assay for Inhibitors of ovarian cancer metastasis using an organotypic tumor microenvironment (TME) model. Further: nearly all actives have a fitted effect of over 65% in size.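 On activity change, negative = inhibition: plate controls were DMSO wells for no effect and tomatine positive control wells for full effect.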
Conditions: SKOV3ip1-GFP adhesion/invasion on 3D omental model, fluorescence; series mostly up to 45.8 µM; activity change, negative = inhibition: at the top concentration
Outline: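 Primary human omental fibroblast/mesothelial 3D culture pre-formed 48 h. SKOV3ip1-GFP cells added with compounds (0.36-46 umol/L), incubated 2 h RT/16 h 37 C, fixed; GFP cells quantified at 488/509 nm.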

Compound | outcome | activity change, negative = inhibition
CCCOc1ccc(C(=O)Nc2cc(-c3nc4ccccc4[nH]3)ccc2C)cc1 | inactive | –
Cn1c(=O)n(C)c2cc(N3CCCCC3)c(NC(=O)Nc3ccc(Br)cc3)cc21 | – | inactive: -3.29%
CCc1ccc(NC(=O)CSc2nc3c([nH]c4ccccc43)c(=O)n2C)cc1 | – | inactive: -8.76%
CCN(CC)c1ccc(NC(=O)Cn2cc3c(n2)CCCC3)c(C)c1 | – | inactive: -16.1%
CC1Cc2cc(S(=O)(=O)CCC(=O)Nc3ccc(F)cc3Cl)ccc2N1C(=O)C1CC1 (centres undefined) | – | inactive: 14.1%
Cn1cc(S(=O)(=O)N2CCc3ccccc32)cc1C(=O)Nc1ccc(C(F)(F)F)cc1 | – | inactive: -3.31%
CCOc1ccccc1NC(=O)Cn1c(=O)n(-c2ccc(Cl)cc2)c(=O)c2oc3ccccc3c21 | inactive | –
Cc1ccc(-n2nc(C(=O)N3CCN(c4cc(C)ccc4C)CC3)c3c4ccccc4n(C)c3c2=O)cc1 | – | inactive: -7.43%
Cc1c(NC(=O)C(C)(C)C)cccc1-c1nc2ccccc2s1 | – | inactive: -1.24%
CCOC(=O)c1cc2c(=O)n3ccccc3nc2n(CC2CCCO2)c1=NC(=O)c1ccccc1OCC (centres undefined) | – | inactive: 3.13%
COc1ccc(N2CCN(C(CNC(=O)c3c(F)cccc3F)c3ccc4c(c3)OCO4)CC2)cc1 (centres undefined) | – | inactive: 3.47%
Cc1ccc(-n2c(=O)c3ccc(C(=O)NCc4ccccc4Cl)cc3n(Cc3cccc(F)c3)c2=O)cc1 | inactive | –
Cc1ccc(CNC(=O)C2CCCN(c3nn4cc(-c5ccc(C)cc5)nc4s3)C2)cc1 (centres undefined) | – | inactive: 7.3%
COCCn1c(SCc2ccccc2F)nc2c([nH]c3ccccc32)c1=O | – | inactive: -5.26%
COC(=O)Cc1c(C)c2ccc3c(c2oc1=O)CN(Cc1ccc(Cl)cc1)CO3 | – | inactive: 0.266%
CCOc1ccc(-n2cc(-c3ccccc3)c3c(NCc4ccccc4)ncnc32)cc1 | inactive | –
COc1ccc(NC(=O)CCn2cnnn2)cc1 | – | inactive: 12.5%
Cc1cccc(CNC(=O)c2ccc(Cn3c(SCc4cccc(F)c4)nc4cccnc43)cc2)c1 | – | inactive: -33.3%
COc1cc(CN(C(=O)c2ccc(C)cc2)C2CCS(=O)(=O)C2)cc(OC)c1OC (centres undefined) | – | inactive: 2.72%
COc1ccc(CNC(=O)C2CCN(S(=O)(=O)N3CCC(C)CC3)CC2)c(OC)c1 | – | inactive: 3.39%
COc1ccc(-c2ccc(CCC(=O)O)n2-c2ccccc2C(F)(F)F)cc1 | – | inactive: -8.83%
COc1ccc(-c2nc3ccccc3o2)cc1NC(=O)c1cc([N+](=O)[O-])ccc1N1CCOCC1 | inactive | –
Cc1ccc(S(=O)(=O)c2cn(CC(=O)Nc3ccc4c(c3)OCO4)c3ccc(C)cc3c2=O)cc1 | – | inactive: 8.43%
CCC1CN(CC(=O)NCc2cccc(Br)c2)c2ccccc2S1 (centres undefined) | inactive | –

Compound | outcome | activity change, negative = inhibition
N#C/C(=C\c1cccc(F)c1)c1nc(-c2cc3ccccc3oc2=O)cs1 | – | inactive: 7.23%
Cc1ccc2c(c1)c1c(c(=O)n(Cc3ccccc3)c(=O)n1Cc1cccc(F)c1)n2C | – | inactive: 17%
Cc1ccccc1OCc1nnc(SCc2cc(=O)c3cc(F)ccc3[nH]2)n1C | – | inactive: -2.19%
CCOC(=O)CN(Cc1ccccc1)C(C(=O)NC1CCCCC1)c1ccccc1 (centres undefined) | – | inactive: -0.325%
COC(=O)Cc1c(C)nc2nc(NCc3ccc(Br)cc3)[nH]n2c1=O | inactive | –
CCOc1ccc(-c2cc(C)n3nc(C(=O)Nc4ccc(C)c(C)c4)cc3n2)cc1 | – | inactive: -8.61%
CCc1ccc(N2CC(C)Cn3c2nc2c3c(=O)n(CC(=O)O)c(=O)n2C)cc1 (centres undefined) | inactive | –
CCc1nnc(SCC(=O)Nc2ccc(OC)c(OC)c2)c2cc3occc3n12 | – | inactive: 2.76%
CC(Oc1ccccc1)C(=O)Nc1ccccc1C(=O)OCc1cc(=O)n2nc(C3CC3)sc2n1 (centres undefined) | – | inactive: 0.555%
COc1ccc(C(=O)N(c2ccc(OC)cc2)S(=O)(=O)c2ccc3c(c2)n(C)c(=O)n3C)cc1 | – | inactive: 4.87%
Cc1ccc(-c2nnc(Nc3ccccc3)c3ccccc23)cc1S(=O)(=O)NCc1nc2ccccc2[nH]1 | – | inactive: 4.45%
Cc1ccc(C)c(N2CCN(CCCNC(=O)c3ccc4nc(N5CCCCC5)sc4c3)CC2)c1 | inactive | –
CCOC(=O)COc1ccc([N+](=O)[O-])cc1-c1ccnc2cc(-c3ccc(C)cc3)nn12 | inactive | –
Cc1cccc(N2CCN(C(=O)CCS(=O)(=O)c3ccc4c(c3)oc(=O)n4C)CC2)c1C | – | inactive: 14.9%
Cc1ccccc1NC(=O)CCC(=O)N1CC(C)Sc2ccccc21 (centres undefined) | – | inactive: 3.03%
COc1cccc(CNC(=O)CSC2=Nc3ccccc3C3=NC(C(C)C)C(=O)N23)c1 (centres undefined) | – | inactive: 1.84%
C=Cc1ccc(COc2ccc3oc(-c4ccccc4)c(C(=O)OCC)c3c2)cc1 | – | inactive: 7.54%
COc1ccc(CNC(=O)c2cc(=O)c3cc(C)ccc3o2)cc1 | – | inactive: -6.13%
CCOC(=O)c1ccc(NC(=O)C2(S(=O)(=O)c3ccc(Cl)cc3)CC2)cc1 | – | inactive: 3.23%
O=C(Nc1noc2ccccc12)c1ccc(F)cc1 | – | inactive: 4.86%
Cc1cccc(C)c1NS(=O)(=O)c1ccc(NS(=O)(=O)c2ccc3c(c2)OCCO3)cc1 | inactive | –
NC(=O)CSc1ncc2c(n1)-c1ccccc1N(Cc1ccc(Cl)cc1)S2(=O)=O | – | inactive: -8.79%
O=C(CN1C(=O)C2(SCC(=O)N2c2ccccc2)c2ccccc21)NCc1ccccc1 (centres undefined) | – | inactive: 1.02%
O=C(Nc1cccc(Cl)c1Cl)c1cc(S(=O)(=O)NCCc2ccccc2)ccc1F | – | inactive: 2.58%

Compound | outcome | activity change, negative = inhibition
O=C(O)C1(Cc2cccc(Nc3nccs3)n2)CCC(Oc2cccc(Cl)c2F)CC1 (centres undefined) | – | inactive: 15.8%
Cc1c(Cl)cccc1NC(=O)Cn1nnc2sc3c(c2c1=O)CCCC3 | – | inactive: 3.28%
COc1ccccc1C(=O)Nc1cccc(C(=O)OCc2cc(=O)n3nc(C)sc3n2)c1 | – | inactive: 4.55%
O=C(NCc1ccc2c(c1)CCN2C(=O)c1ccc(F)cc1)c1ccco1 | – | inactive: -3.74%
CC(C)c1noc(-c2ccccc2OCC(=O)Nc2ccccc2[N+](=O)[O-])n1 | – | inactive: 2.38%
Cc1cc(Nc2ccc(Cl)cc2C)nc(-n2nc(C)cc2C)n1 | – | inactive: -9.09%
CC(C)(C)c1ccccc1NC(=O)CSc1nc(-c2cccs2)cc(C(F)(F)F)n1 | inactive | –
Cc1nn(CC(=O)Nc2cc(F)ccc2F)c(=O)c2cccn12 | – | inactive: -8.42%
CCN(C(=O)c1cc2c(=O)n3cccc(C)c3nc2s1)c1ccc(C)c(C)c1 | – | inactive: -9.34%
CCOC(=O)[C@H]1O[C@H]1C(=O)N[C@@H](CC(C)C)C(=O)NCCC(C)C | – | inactive: 0.892%
CCC(NC(=O)Nc1cc(OC)ccc1OC)c1c(-n2cccc2)sc2c1CCN(CC)C2 (centres undefined) | inactive | –
CCC(=O)Nc1ccc2nc3c(=O)n(C)c(=O)n(C)c3nc2c1 | – | inactive: 6.75%
CCOc1ccc(C(=O)Nc2ccc(-n3nncc3-c3ccccc3)cc2)cc1OCC | – | inactive: 6.53%
Cc1c(CNC2CCCCC2)c(C(=O)O)c(C)n1Cc1ccc(F)cc1 | – | inactive: 10.8%
CC(C)c1nc2n(n1)C1(CCCCC1)[C@@H]1CCCC[C@@H]1N2 | – | inactive: 4.46%
CCOC(=O)c1c(NC(=O)CSc2cn(CCNC(=O)c3ccccc3OC)c3ccccc23)sc2c1CCC2 | inactive | –
Cc1oc2ccc(O)c(CN3CCN(C)CC3)c2c1C(=O)Nc1cccc(C(F)(F)F)c1 | – | inactive: -17.8%
CCCCCC(=O)Nc1ccc(NC(=O)c2cc3ccccc3o2)c(OC)c1 | inactive | –
O=C(CSc1nc2c([nH]c3ccccc32)c(=O)n1-c1cccc(Cl)c1)N1CCOCC1 | – | inactive: -12.8%
COc1cccc(CNC(=O)C2(c3cccs3)CCOCC2)c1 | – | inactive: -0.94%
O=C(Cn1c(=O)c2ccccc2n(CC(=O)Nc2ccc(F)cc2)c1=O)NCCc1ccccc1 | – | inactive: -0.153%
Cc1oc(-c2cccc(Cl)c2)nc1CN1CCCC(C(=O)N2CCN(c3ccc(F)cc3)CC2)C1 (centres undefined) | – | inactive: 6.2%
COc1c(Cl)cc(C(=O)N(Cc2ccc(C)o2)C2CCS(=O)(=O)C2)cc1Cl (centres undefined) | – | inactive: 7.84%
Cc1cccc(Cn2c(C)c(CNC3CCCCCC3)c(C(=O)O)c2C)c1 | – | inactive: 6.47%

Compound | outcome | activity change, negative = inhibition
COc1ccc(-c2nc3c4ccccc4n(CC(=O)N4CCN(c5ccc(F)cc5)CC4)c(=O)n3n2)cc1 | – | inactive: -13%
N#CC1(c2ccc(NC(=O)c3cccnc3NCc3ccncc3)cc2)CCCC1 | – | inactive: -15.5%
CCOc1ccc(-n2c(CC)nc3c(cnn3-c3ccc(Cl)cc3)c2=O)cc1 | inactive | –
Cc1cc(C)n(-c2nc3ccccc3nc2N2CCN(c3cccc(C)c3C)CC2)n1 | – | inactive: 7.55%
CCOc1ccc(NC(=O)NCc2ccc3c(c2)CCN3C(C)=O)cc1 | – | inactive: -2.66%
CCOC(=O)c1cc2c(=O)n3ccccc3nc2n(CC2CCCO2)c1=NC(=O)c1ccc(OC)cc1OC (centres undefined) | – | inactive: -2.46%
COc1cccc(NC(=O)Cn2c(=O)n(CCc3ccccc3)c(=O)c3c4c(sc32)CN(C(C)=O)CC4)c1 | inactive | –
Cc1ccc(C(=O)c2oc3ccccc3c2NC(=O)COc2ccccc2Cl)cc1 | inactive | –
CCCN(CCC)CCCNC(=O)Cn1cc2c(n1)-c1c(oc(C(=O)N3CCCC3)c1C)CC2 | – | inactive: -3.01%
COc1cccc(C(=O)c2cn(CC(=O)NCCc3ccccc3)c3nc(C)ccc3c2=O)c1 | – | inactive: 4.46%
CCOC(=O)N1CCc2c(sc3c2C(=O)NC(c2cc(OC)c(O)c(OC)c2)N3)C1 (centres undefined) | – | inactive: 9.53%
CCCNC(=O)C(CC)n1nc(CC)n2c(cc3oc(C)cc32)c1=O (centres undefined) | – | inactive: 1.47%
CCCN1CCN(CCCNC(=O)Cn2c(-c3cccs3)cc3ccccc32)CC1 | – | inactive: 4.54%
CCC(C)NC(=O)Cn1c(=O)n(Cc2ccc(C(=O)NCc3ccccc3OC)cc2)c(=O)c2ccccc21 (centres undefined) | inactive | –
Cc1nn(C(=O)c2cccc(F)c2)c(C)c1S(=O)(=O)N1CCCCCC1 | – | inactive: 1.84%
Cn1nc(-c2ccccc2F)c2cc(C(=O)N3CCN(c4ccc(F)cc4)CC3)sc21 | – | inactive: -16.9%
CCn1cc(S(=O)(=O)c2ccc(C)cc2)c(=O)c2cc(F)c(N3CCCCCC3)cc21 | inactive | –
CCOC(=O)c1[nH]c(C)c(CCC(=O)NCc2ccccc2C)c1C | – | inactive: -6.9%
Cn1c(=O)n(C/C=C/c2ccccc2)c(=O)c2c1nc1n2CCN1c1ccc(Cl)cc1 | – | inactive: 5.48%
COc1ccc(Cn2c(SCc3ccc(C(=O)NCCc4ccccc4)cc3)nc3cccnc32)cc1 | – | inactive: 1.47%
CCN(CC)c1nn2c(=O)c(C(=O)NCc3cccc(C)c3)cnc2s1 | – | inactive: 27.7%
NCCc1ccc(O)c(O)c1 | – | inactive: -10.3%
